Assay results reported in publication PMC4336329 (PLoS ONE, 2015).
About 14,000 (4.5%) of roughly 310,000 compounds showed an effect of 50% or more. Effects have a minus sign here. The list shows a part of the results.
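Also: peak tail current of the secondary pulse compared with the same well before compound.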

What follows are compounds tested against human ether-à-go-go-related gene (hERG) potassium channel (human, UniProt Q12809) (assay: primary screen, population patch clamp on CHO cells stably expressing hERG).
Chain of human ether-à-go-go-related gene (hERG) potassium channel (Q12809 whole entry, looked up): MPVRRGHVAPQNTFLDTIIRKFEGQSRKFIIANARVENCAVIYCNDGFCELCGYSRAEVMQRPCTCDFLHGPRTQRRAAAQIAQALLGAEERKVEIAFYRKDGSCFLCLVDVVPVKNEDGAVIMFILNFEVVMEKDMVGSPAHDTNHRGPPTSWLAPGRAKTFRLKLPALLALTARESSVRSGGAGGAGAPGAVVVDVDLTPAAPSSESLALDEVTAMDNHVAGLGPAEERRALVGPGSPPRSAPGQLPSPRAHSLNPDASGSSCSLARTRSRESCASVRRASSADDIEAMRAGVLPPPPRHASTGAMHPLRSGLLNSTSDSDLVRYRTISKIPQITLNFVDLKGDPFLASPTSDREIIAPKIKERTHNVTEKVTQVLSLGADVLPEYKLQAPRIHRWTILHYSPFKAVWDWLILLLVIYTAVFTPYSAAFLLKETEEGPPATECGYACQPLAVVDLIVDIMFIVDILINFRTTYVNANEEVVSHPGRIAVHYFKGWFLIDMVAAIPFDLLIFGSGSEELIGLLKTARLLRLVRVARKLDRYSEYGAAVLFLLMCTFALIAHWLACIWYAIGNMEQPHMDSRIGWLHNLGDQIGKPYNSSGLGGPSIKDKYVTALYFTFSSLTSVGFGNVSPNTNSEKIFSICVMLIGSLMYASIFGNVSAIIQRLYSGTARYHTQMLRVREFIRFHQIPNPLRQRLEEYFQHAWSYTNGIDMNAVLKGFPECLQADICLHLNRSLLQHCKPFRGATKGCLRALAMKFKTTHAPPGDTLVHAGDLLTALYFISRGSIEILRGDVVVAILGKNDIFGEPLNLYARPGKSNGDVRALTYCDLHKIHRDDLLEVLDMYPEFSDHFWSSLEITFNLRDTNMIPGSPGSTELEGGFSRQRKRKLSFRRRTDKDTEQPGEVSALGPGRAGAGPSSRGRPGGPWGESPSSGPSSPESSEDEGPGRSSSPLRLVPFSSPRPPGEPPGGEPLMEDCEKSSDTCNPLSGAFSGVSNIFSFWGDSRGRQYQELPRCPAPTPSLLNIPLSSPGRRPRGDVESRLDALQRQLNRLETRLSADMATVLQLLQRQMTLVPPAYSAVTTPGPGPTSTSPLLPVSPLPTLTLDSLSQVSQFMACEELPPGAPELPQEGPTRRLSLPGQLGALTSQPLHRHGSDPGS
In the case of `COc1ccc(C(=O)OC(C)C(=O)NC2CCCC2)cc1S(=O)(=O)N1CCOCC1` (stereo not drawn), the “hERG current change (%, negative = inhibition) at 10uM” value is reported as -3.86%.
In the case of `CC12CCC(C(=O)OC3CCCCC3)(OC1=O)C2(C)C` (stereo not drawn), the “hERG current change (%, negative = inhibition) at 10uM” value is reported as 18.8%.
In the case of `Cc1ccc(C)c(S(=O)(=O)N2CCN(C(=O)c3ccc(-n4cncn4)c([N+](=O)[O-])c3)CC2)c1`, the “hERG current change (%, negative = inhibition) at 10uM” value is reported as -72.1%.
`CCOC(=O)c1cc(OCC(=O)NC(C)C(C)C)cc(C(=O)OCC)c1` (stereo not drawn) was tested, and the “hERG current change (%, negative = inhibition) at 10uM” value was -7.79%.
With `Cc1ccc(S(N)(=O)=O)cc1NC(=O)C1CC2CCC1C2` (stereo not drawn) the “hERG current change (%, negative = inhibition) at 10uM” value was 10.1%.
In the case of `Cc1cc(=O)[nH]c(N/N=C/c2ccc(-c3ccc(F)cc3)o2)n1`, the “hERG current change (%, negative = inhibition) at 10uM” value is reported as -12.1%.
In the case of `CC1Cc2nc(SCC(=O)c3ccccc3)n(Cc3ccccc3)c(=O)c2S1` (stereo not drawn), the “hERG current change (%, negative = inhibition) at 10uM” value is reported as 2.21%.
With `CC(=O)Nc1ccc(NS(=O)(=O)c2ccc(-c3csc(C)n3)s2)cc1` the “hERG current change (%, negative = inhibition) at 10uM” value was 4.28%.
In the case of `O=C1NC(N2CCOCC2)=N/C1=C/c1ccc2c(c1)OCO2`, the “hERG current change (%, negative = inhibition) at 10uM” value is reported as 2.71%.
For `Cc1c(Cc2ccccc2)sc(/N=C/c2c(O)ccc3ccccc23)c1C(N)=O`, the “hERG current change (%, negative = inhibition) at 10uM” value was -6.04%.
For `CC(C)CC(=O)N1CCN(C(=O)c2ccc(F)cc2)CC1`, the “hERG current change (%, negative = inhibition) at 10uM” value was 12.6%.
In the case of `CCOc1ccccc1NC(=S)N1CCC(c2nc3ccccc3o2)CC1`, the “hERG current change (%, negative = inhibition) at 10uM” value is reported as 4.78%.
For `NS(=O)(=O)c1ccc(CCNC(=O)c2cccc3ccccc23)cc1`, the “hERG current change (%, negative = inhibition) at 10uM” value was 9.98%.
For `NC(=O)c1nc[nH]c1C(=O)Nc1cccc(C(F)(F)F)c1`, the “hERG current change (%, negative = inhibition) at 10uM” value was 2.89%.
For `Cc1ccc(-c2noc(CN(C(=O)CCCN3C(=O)c4ccccc4C3=O)C(C)C)n2)cc1`, the “hERG current change (%, negative = inhibition) at 10uM” value was -39.7%.
`CC(=O)N1c2ccc(S(=O)(=O)NCC3CCC(C(=O)NCc4ccc(C)o4)CC3)cc2CC1C` (stereo not drawn) was tested, and the “hERG current change (%, negative = inhibition) at 10uM” value was -3.13%.
In the case of `Cn1c(O)c(C=NCc2cccs2)c(=O)n(C)c1=O`, the “hERG current change (%, negative = inhibition) at 10uM” value is reported as 1.04%.
With `CCC(Oc1ccccc1C)C(=O)N1CCCN(C)CC1` (stereo not drawn) the “hERG current change (%, negative = inhibition) at 10uM” value was 10.4%.
With `Cc1ccc(-c2nn(-c3cccc(F)c3)cc2CN2CCN(c3ccccn3)CC2)o1` the “hERG current change (%, negative = inhibition) at 10uM” value was -26.5%.
With `Cc1ncsc1C(=O)Nc1nc2c(s1)CC(C)CC2` (stereo not drawn) the “hERG current change (%, negative = inhibition) at 10uM” value was 6.52%.
For `O=C(c1cccc(Cl)c1)N1CCN(S(=O)(=O)c2ccc(Cl)s2)CC1`, the “hERG current change (%, negative = inhibition) at 10uM” value was -37.4%.
`COc1ccc(C)cc1NC(=O)CSc1nnc(CC(=O)Nc2ccccc2F)n1C` was tested, and the “hERG current change (%, negative = inhibition) at 10uM” value was 3.63%.
In the case of `COc1ccc(C2CC(=O)C=C(NNS(=O)(=O)c3ccc(C)cc3)C2)cc1` (stereo not drawn), the “hERG current change (%, negative = inhibition) at 10uM” value is reported as -6.77%.
`CC1(C)CC(C2N3CC4(C)CN2CC(C)(C3)C4=O)CCO1` (stereo not drawn) was tested, and the “hERG current change (%, negative = inhibition) at 10uM” value was -1.88%.
`O=C(N/C(=C/c1cccc([N+](=O)[O-])c1)C(=O)N1CCCCCC1)c1ccco1` was tested, and the “hERG current change (%, negative = inhibition) at 10uM” value was -28.2%.
For `CCn1ccnc1CN1CCN(CC(C)C)C(CCO)C1` (stereo not drawn), the “hERG current change (%, negative = inhibition) at 10uM” value was 25.7%.
In the case of `CC1CCCCN1S(=O)(=O)c1ccc(-n2cnnn2)cc1` (stereo not drawn), the “hERG current change (%, negative = inhibition) at 10uM” value is reported as -50.1%.
With `CC(C)(C)C(=O)CSc1ncnc2c1cnn2Cc1ccccc1` the “hERG current change (%, negative = inhibition) at 10uM” value was -5.74%.
For `O=C(C1=NN[C@@H]2C(=O)N(c3cccc(C(F)(F)F)c3)C(=O)[C@H]12)c1cnccn1`, the “hERG current change (%, negative = inhibition) at 10uM” value was 19%.
`COCCNC(=S)N1CCN(C)CC1.O=C(O)C(=O)O` was tested, and the “hERG current change (%, negative = inhibition) at 10uM” value was 5.92%.
With `CCOC(=O)CNC(=O)c1ccc(OCC(F)(F)F)cc1` the “hERG current change (%, negative = inhibition) at 10uM” value was 9.36%.
`CN(C1CCCCC1)S(=O)(=O)c1cccc2nsnc12` was tested, and the “hERG current change (%, negative = inhibition) at 10uM” value was 8.05%.
For `COC(=O)Cn1c(C)nc([N+](=O)[O-])c1Br`, the “hERG current change (%, negative = inhibition) at 10uM” value was -9.28%.
For `O=C(Nc1cccc([N+](=O)[O-])c1)C1C2CC/C=C\CCC21` (stereo not drawn), the “hERG current change (%, negative = inhibition) at 10uM” value was 16.1%.
`CC1CCCCN1CCNC(=O)c1ccc2c(c1)N(Cc1cccc(Cl)c1)C(=O)c1ccccc1S2=O` (stereo not drawn) was tested, and the “hERG current change (%, negative = inhibition) at 10uM” value was -32.1%.
For `CC(=O)c1cccc(NC(=O)CN(C)Cc2ccc(OC(F)F)cc2)c1`, the “hERG current change (%, negative = inhibition) at 10uM” value was -55%.
For `CCOC(=O)c1nnn(CC(=O)Nc2cc(Cl)ccc2C)c1C(=O)OCC`, the “hERG current change (%, negative = inhibition) at 10uM” value was -1.89%.
In the case of `N#CCOc1ccccc1/C=N/n1nnnc1N`, the “hERG current change (%, negative = inhibition) at 10uM” value is reported as 17.4%.
For `CCCCc1ccc(S(=O)(=O)Nc2nnc(C)s2)cc1`, the “hERG current change (%, negative = inhibition) at 10uM” value was 24.2%.
With `O=C(N/N=C/c1cc(Cl)ccc1O)c1ccccc1Br` the “hERG current change (%, negative = inhibition) at 10uM” value was 5.1%.
With `O=C(C1CCCO1)N1CCN(Cc2nc3ccccc3c(=O)[nH]2)CC1` (stereo not drawn) the “hERG current change (%, negative = inhibition) at 10uM” value was 11.9%.
For `COCCNC(=O)c1ccc(NS(C)(=O)=O)cc1`, the “hERG current change (%, negative = inhibition) at 10uM” value was 17.2%.
For `Cc1[nH]n(-c2ccccc2)c(=O)c1Sc1ccc(Cl)cc1`, the “hERG current change (%, negative = inhibition) at 10uM” value was 12%.
In the case of `O=C(/C=C/c1cccc([N+](=O)[O-])c1)NCCSc1ccccc1`, the “hERG current change (%, negative = inhibition) at 10uM” value is reported as -43.7%.
For `N#CCC(=N)N1CCN(c2ccc(F)cc2)CC1`, the “hERG current change (%, negative = inhibition) at 10uM” value was -42%.
